“And” between values parts separate entries of the source, which are not always exact repeats. Identical values can stand only once.
How the values were obtained:
VEGF-D [1] = target: T1, VEGF-D (UniProt O43915 89-205, limits assumed); assay: ELISA binding to VEGF-D, OD450
T1 construct: Bought reagent
T1 sequence (looked up): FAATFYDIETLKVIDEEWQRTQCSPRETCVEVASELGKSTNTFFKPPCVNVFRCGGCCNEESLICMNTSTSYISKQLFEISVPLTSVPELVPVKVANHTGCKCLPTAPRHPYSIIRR

VEGF-C [2] = target: T2, VEGF-C (UniProt P49767 112-227, limits assumed); assay: ELISA, coated VEGF-C, anti-human Fc-HRP
T2 construct: Bought reagent
T2 sequence (looked up): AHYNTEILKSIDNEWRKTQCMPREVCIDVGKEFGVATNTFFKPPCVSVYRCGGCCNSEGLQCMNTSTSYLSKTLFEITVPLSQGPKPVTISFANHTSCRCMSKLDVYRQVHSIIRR

VEGF-C [3] = target: T2, VEGF-C; assay: blocking ELISA, VEGF-C to VEGFR2 (Example 13)
VEGF-D [4] = target: T1, VEGF-D; assay: blocking ELISA, VEGF-D to VEGFR2 (Example 13)
VEGF-D [5] = target: T1, VEGF-D; assay: blocking ELISA, VEGF-D to VEGFR3 (Example 13)
VEGF-A165 [6] = target: T3, VEGF-A165 (UniProt P15692-4 27-191); assay: ELISA, coated VEGF-A 165, anti-human Fc-HRP
T3 construct: Bought reagent
T3 sequence (looked up): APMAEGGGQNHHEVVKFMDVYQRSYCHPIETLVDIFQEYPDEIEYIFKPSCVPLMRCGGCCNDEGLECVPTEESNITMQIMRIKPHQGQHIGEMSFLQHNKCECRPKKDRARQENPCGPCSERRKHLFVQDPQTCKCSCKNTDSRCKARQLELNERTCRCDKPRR

VEGF-A 121 [7] = target: T4, VEGF-A 121 (UniProt P15692-9 27-147); assay: ELISA, coated VEGF-A 121, anti-human Fc-HRP
T4 construct: Bought reagent
T4 sequence (looked up): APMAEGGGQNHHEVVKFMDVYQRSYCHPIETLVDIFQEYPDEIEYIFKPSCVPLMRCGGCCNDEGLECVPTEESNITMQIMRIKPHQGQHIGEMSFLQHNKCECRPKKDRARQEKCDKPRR

PDGF-AA = target: T5, PDGF-AA (UniProt P04085 87-211); assay: SPR, PDGF coupled to CM5 chip, trap in flow
T5 construct: Bought reagent
Excerpt: (§1) Nevertheless, it was found in the preliminary detection experiments that PDGF family molecules (purchased from R&D Systems Inc.) were prone to produce non-specific binding in the chip, resulting in a pseudo-elevation in measured values, such that the detection could not be completed. Therefore, PDGF-AA, PDGF-AB, PDGF-BB and PDGF-CC molecules were separately loaded through a coupling reaction on a CM5 chip, followed by influx of the recombinant receptor molecules, thus effectively eliminating the impact of non-specific binding on affinity determination.

PDGF-AB = target: T6, PDGF-AB (UniProt P04085 87-211; P01127 82-190); assay: SPR, PDGF coupled to CM5 chip, trap in flow
Sequence of PDGF-AB (P01127 82-190, chain 2 of 2, other chains not shown): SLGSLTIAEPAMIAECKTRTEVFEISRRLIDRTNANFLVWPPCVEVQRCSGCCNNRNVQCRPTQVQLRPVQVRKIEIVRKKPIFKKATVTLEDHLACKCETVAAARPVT
T6 construct: Bought reagent
Excerpt: as §1

PDGF-CC = target: T7, PDGF-CC (UniProt Q9NRA1 235-345); assay: SPR, PDGF coupled to CM5 chip, trap in flow
Sequence of PDGF-CC (Q9NRA1 235-345): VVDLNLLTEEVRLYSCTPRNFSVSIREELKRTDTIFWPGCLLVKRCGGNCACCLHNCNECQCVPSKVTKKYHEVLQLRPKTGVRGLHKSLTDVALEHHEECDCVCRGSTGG
T7 construct: Bought reagent
Excerpt: as §1

VEGF-A165 [8] = target: T3, VEGF-A165; assay: blocking ELISA, VEGF-A165 to VEGFR2 (Example 13)
VEGF-C [9] = target: T2, VEGF-C; assay: blocking ELISA, VEGF-C-His to coated VEGFR2-Fc
Experimental: (§2) During the blocking period, each recombinant receptor molecule was serially diluted from high to low concentrations, mixed evenly with 100 ng/well of VEGF-C or VEGF-D (both labeled with His-tag), allowing for incubation at room temperature for 30 minutes. […] The plates were washed with PBST, then anti-polyhistidine secondary antibody conjugated with horseradish peroxidase was added to allow for incubation and binding at room temperature for 1 hour. Then the plates were washed with PBST, TMB was added for color development, terminated with 5% hydrochloric acid solution, and finally, the OD values at 450 nm were read using a microplate reader.

VEGF-D [10] = target: T1, VEGF-D; assay: blocking ELISA, VEGF-D-His to coated VEGFR2-Fc
Experimental: as §2

VEGF-C [11] = target: T2, VEGF-C; assay: blocking ELISA, VEGF-C-His to coated VEGFR3-Fc
Experimental: (§3) During the blocking period, each recombinant receptor molecule was serially diluted from high to low concentrations, mixed evenly with 10 ng/well of VEGF-C or 500 ng/well of VEGF-D (both labeled with His-tag), allowing for incubation at room temperature for 30 minutes. […] The plates were washed with PBST, then TMB was added for color development, terminated with 5% hydrochloric acid solution, and finally, the OD values at 450 nm were read using a microplate reader.

VEGF-D [12] = target: T1, VEGF-D; assay: blocking ELISA, VEGF-D-His to coated VEGFR3-Fc
Experimental: as §3

VEGF-A165 [13] = target: T3, VEGF-A165; assay: blocking ELISA, VEGF-A 165-His to coated VEGFR2-Fc
VEGF-A 121 [14] = target: T4, VEGF-A 121; assay: blocking ELISA, VEGF-A 121-His to coated VEGFR2-Fc
VEGF-C [15] = target: T2, VEGF-C; assay: ELISA binding to VEGF-C, absorbance 450 nm
VEGF-A165 [16] = target: T3, VEGF-A165; assay: ELISA binding to VEGF-A165, absorbance 450 nm
PDGF-BB = target: T8, PDGF-BB (UniProt P01127 82-190); assay: SPR, PDGF coupled to CM5 chip, trap in flow; row label printed PDGF-BR
Sequence of PDGF-BB (P01127 82-190): as the sequence (P01127 82-190, chain 2 of 2, other chains not shown) above
T8 construct: Bought reagent
Excerpt: as §1

VEGF-D [17] = target: T1, VEGF-D; assay: blocking ELISA, VEGF-D-His to coated VEGFR2-Fc; row head prints uM, ng/ml row implies nM
Experimental: as §2

VEGF-C [18] = target: T2, VEGF-C; assay: blocking ELISA, VEGF-C-His to coated VEGFR3-Fc; row head prints uM, ng/ml row implies nM
Experimental: as §3

VEGF-A165 [19] = target: T3, VEGF-A165; assay: blocking ELISA, VEGF-A 165-His to coated VEGFR2-Fc; row head prints uM, paragraph 129 and ng/ml row give nM
VEGF-A165 [20] = target: T3, VEGF-A165; assay: blocking ELISA, VEGF-A165 to VEGFR1 (Example 13)
PIGF = target: T9, PIGF (UniProt P49763-2 19-149, limits assumed); assay: ELISA, PlGF coated, anti-human Fc-HRP, OD450
T9 construct: Bought reagent; also called PLGF; placental growth factor
T9 sequence (looked up): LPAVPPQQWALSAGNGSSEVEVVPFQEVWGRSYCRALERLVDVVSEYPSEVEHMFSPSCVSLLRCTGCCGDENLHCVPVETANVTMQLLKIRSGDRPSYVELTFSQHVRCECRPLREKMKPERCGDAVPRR

VEGF-B = target: T10, VEGF-B (UniProt P49765-2 22-188, limits assumed); assay: ELISA, VEGF-B coated, anti-human Fc-HRP, OD450
T10 construct: Bought reagent
T10 sequence (looked up): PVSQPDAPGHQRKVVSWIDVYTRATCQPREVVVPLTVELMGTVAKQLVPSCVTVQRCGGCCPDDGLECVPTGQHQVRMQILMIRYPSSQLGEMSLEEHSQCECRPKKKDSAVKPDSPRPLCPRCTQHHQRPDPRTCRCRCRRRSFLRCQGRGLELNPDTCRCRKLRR

B1: LFV-C Recombinant receptor molecule (Fc fusion)
chain: SPFIASVSDQHGVVYITENKNKTVVIPCLGSISNLNVSLCARYPEKRFVPDGNRISWDSKKGFTIPSYMISYAGMVFCEAKINDESYQSIMYIVVVVGYRIYDVVLSPSHGIELSVGEKLVLNCTARTELNVGIDFNWEYPSSKHQHKKLVNRDLKTQSGSEMKKFLSTLTIDGVTRSDQGLYTCAASSGLMTKKNSTFVRVHEKGPG[here human IgG1 Fc without letters]
**Q.** B1 was tested. Which EC50 (VEGF-D [1]) did it give?
**A.** The EC50 was 11.6 nM.

**Q.** And the EC50 (VEGF-C [2])?
**A.** Its EC50 is 0.24 nM and 0.0242 µg/mL.

**Q.** And the EC50 (VEGF-C [3])?
**A.** The EC50 was 26.2 nM.

**Q.** What about the EC50 (VEGF-D [4]) of the same binder?
**A.** The EC50 was 2.3 nM.

**Q.** What about the EC50 (VEGF-D [5]) of the same binder?
**A.** Its EC50 is 2.62 nM.

**Q.** And the EC50 (VEGF-A165 [6])?
**A.** Its EC50 is 0.0126 µg/mL and 0.126 nM.

**Q.** What about the EC50 (VEGF-A 121 [7]) of the same binder?
**A.** Its EC50 is 0.476 nM and 0.0476 µg/mL.

**Q.** And the Kd (PDGF-AA)?
**A.** The Kd was 19.4 nM.

**Q.** And the koff (PDGF-AA)?
**A.** The koff was 0.000664 s⁻¹.

**Q.** What about the kon (PDGF-AA) of the same binder?
**A.** Its kon is 34200 M⁻¹ s⁻¹.

**Q.** What about the Kd (PDGF-AB) of the same binder?
**A.** Its Kd is 29.6 nM.

**Q.** What about the koff (PDGF-AB) of the same binder?
**A.** The koff was 0.00086 s⁻¹.

**Q.** What about the kon (PDGF-AB) of the same binder?
**A.** Its kon is 29000 M⁻¹ s⁻¹.

**Q.** And the Kd (PDGF-CC)?
**A.** The Kd was 60 nM.

**Q.** What about the EC50 (VEGF-A165 [8]) of the same binder?
**A.** Its EC50 is 3.18 nM.

**Q.** And the EC50 (VEGF-C [9])?
**A.** Its EC50 is 2.25 µg/mL and 22.5 nM.

**Q.** And the EC50 (VEGF-D [10])?
**A.** The EC50 was 0.034 µg/mL.

**Q.** What about the EC50 (VEGF-C [11]) of the same binder?
**A.** Its EC50 is 0.106 µg/mL.

**Q.** And the EC50 (VEGF-D [12])?
**A.** The EC50 was 0.125 µg/mL and 1.25 nM.

**Q.** What about the EC50 (VEGF-A165 [13]) of the same binder?
**A.** Its EC50 is 0.457 µg/mL.

**Q.** What about the EC50 (VEGF-A 121 [14]) of the same binder?
**A.** Its EC50 is 0.935 µg/mL and 9.35 nM.

**Q.** What about the EC50 (VEGF-C [15]) of the same binder?
**A.** The EC50 was 0.476 nM.

**Q.** What about the EC50 (VEGF-A165 [16]) of the same binder?
**A.** Its EC50 is 0.128 nM.

**Q.** What about the Kd (PDGF-BB) of the same binder?
**A.** Its Kd is 20.1 nM.

**Q.** And the koff (PDGF-BB)?
**A.** The koff was 0.000551 s⁻¹.

**Q.** And the kon (PDGF-BB)?
**A.** Its kon is 26700 M⁻¹ s⁻¹.

**Q.** And the EC50 (VEGF-D [17])?
**A.** The EC50 was 340 nM.

**Q.** What about the EC50 (VEGF-C [18]) of the same binder?
**A.** The EC50 was 1060 nM.

**Q.** What about the EC50 (VEGF-A165 [19]) of the same binder?
**A.** The EC50 was 4.57 µM.

B2: LFV-N Recombinant receptor molecule (Fc fusion)
chain: SPFIASVSDQHGVVYITENKNKTVVIPCLGSISNLNVSLCARYPEKRFVPDGNRISWDSKKGFTIPSYMISYAGMVFCEAKINDESYQSIMYIVVVVGYRIYDVVLSPSHGIELSVGEKLVLNCTARTELNVGIDFNWEYPSSKHQHKKLVNRDLKTQSGSEMKKFLSTLTIDGVTRSDQGLYTCAASSGLMTKKNSTFVRVHEKGGGGSGRPFVEMYSEIPEIIHMTEGRELVIPCRVTSPNITVTLKKFPLDTLIPDGKRIIWDSRKGFIISNATYKEIGLLTCEATVNGHLYKTNYLTHRQTNTIIGPG[here human IgG1 Fc without letters]
notes: expressed in CHO cells
**Q.** What does the source list for B2?
**A.** EC50 (VEGF-C [3]): 27.3 nM; EC50 (VEGF-D [4]): 1.79 nM; EC50 (VEGF-D [5]): 2.31 nM; EC50 (VEGF-A165 [20]): 3.3 nM; EC50 (VEGF-A165 [8]): 1.87 nM; EC50 (PIGF): 0.25 nM; EC50 (VEGF-B): 1.53 nM
